According to the RNAGym collection of RNA variant scans (doi:10.7554/elife.90254):
Read counts are not given, so values of variants with three or more changes are uncertain.

B1: LINE1-mini (parent)
chain: GGCAGAGCUCAACACAGCGUGGCAAAGUGGCUGUGGCUAGACUGCC

Variants of: B1
Assay: self-cleavage, relative activity (ratio to wild type); higher = more cleavage; in vitro, sequencing; the parent is a self-cleaving ribozyme

Variant	self-cleavage
C13A G35A C46G	0.03
G7A A25G G36C C37U G40A C46U	0.17
G1U G2U U9A C10G C23G C31U C46U	0.01
A11U G17C G35C	0.02
A26U G27C U43C	0.06
A24U G29U G30U C31U	1.09
G1A C13A C23A G30A G36A	0.22
C10A A16U G27A	0.05
G21U G30C C42G	0.02
A11G G17U G22U C31U C42U	0.05
A12C U20C G30U C42U	0
A12C A39G A41G	0.01
U32A U34C C42U	0.05
C3G A11U C13G G36A	0
C13A G19A C45U C46U	0.07
A14U A16U G30A G36U A39G	0.09
C23U G30C G35A A39U	0.04
C3G U28G C31G	0.08
C10A G22A G30A	0.1
U9G A16G G19A	0.09
A11C G22U U38C	0.09
A12G A24G U32A U38A	0.04
C3U G21A A24C A25G A26C U28G	0.25
G17C A24U G35C C42A	0.02

Variant	self-cleavage
A11G A25U C45G	0.03
A6U U9A A25C	0.05
G2U C8U U9A	0.16
G1A C15U U43A	0.05
C8G U9C G29A G30A U34A	0.01
A6C C10U C37U	0.03
G7A C23U U38G G40U	0.01
G5C G7U U28G	0.01
G1C C3U C8A G44A	0.35
C23U G30U C37G	0.01
C3G C8G A25C	0.29
G1C G27A C46U	0.12
A4C C37G U38G C46U	0.02
U9A A14U G22C G36U	0.17
U34G G44C C45G	0.01
C3G G7U A11C C15U C42G	0.01
C10U C13A C37G	0.05
C15U G27C G36U	0.07
C23U U28C G35C C42G	0.02
G5U U20C U43G G44U	0.13
U20A G30C U34C A39U	0.04
C3U A4U G7A U28G C31A U38A G40C	0
A6U C8U A12U U28G U38C	0.28
G1U U9A C31U G44A	0.02

Variant	self-cleavage
G33A U34A A39U G44U	0.19
U9A A25G G35C	0.07
G2A C15U A16G U38A C45U	0.69
G19U G21C G35C	0.11
C13U A14G A16U	0.07
U9C A12G U28C	0.01
C10U G21A U34A C45U	0.08
C31A G33U U34C C37G	0.02
G1A U20C G40U	0.06
U9A C10U A14U U28C G29A	0.15
C8U C13G A24C U28A	0.42
C3U C10A G21U A41G	0.04
C18G U20C G44C	0.03
G2C C3A A16C G21U G27A C37U U38A	0.02
U9A A16U C42A	0.06
G5A U34A C37A A41C U43G C46U	0.07
A4U C8G G19U A25C U28G	0.02
G5U G40U C46A	0.04
C15A A25U C42U	0.05
A16G G17C U32G	0.14
G1C U20C G21U	0.03
U9G A11C A12C G19A U20C C23U C45U	0
A12G G19A C23U	0.01
G1U G2A A6U G7C C13U	0.15

Variant	self-cleavage
U9A C15U G17A	0.49
C13U U20C G35A G36A	0.01
C18U G40A C45G	0.06
G19U G22C A26U G27A C31G	0.13
C23A A25U C42A	1.46
A4G A12U C13G	0.18
G2U G30C C37A	0.21
G2A C15G G29C U32G A39U G44U C45G	0.03
G2C A12C C23A G44C	0.01
G5A G30U U43C G44C	0.02
G7U U20G A24C	0.04
A6U A11G C42U	0
G5A A14U U34A	0.06
C15U G22A U28A	1.06
C13G C15G C18U U34A A39U C46U	0.14
G19C G21U U32C G44A	0.04
G1U A4G G19U C31G A39G	0.04
G2C C3G C10U A14G G30A	0.1
G19U G22U A25U A26C C37U A41U	0.05
U34A C37U A41G C42U	0.03
A11C C13U U20C G21C G30U	0
C23A A25C U43A	0.02
U9A C13A G17U A26U G33A	0.06
A12G G22A G30U	0.04

Variant	self-cleavage
A4G G7C U9A A14C G29A G36C U38A	0.22
G30C G33C C37G	0.02
C3A C8A A14U C18U U20A U28G C42G	0.13
G5C A6C C13U C18A	0.03
G22U G30A C31U	0.07
G21U G36A A41U	0.21
G7U G33C G40A	0.15
A12C G19C A41G C46U	0.03
G7U A14G G19C U28A	0.03
G2C G5A A26U G29U	0.05
C13A G17C G21U	0.1
G2A A24U G29A	1.43
G30C C31G A41C G44U	0.06
G2C G7C U38A	0.11
G2U C8U U32A U34C G40U	0.03
C8U C13A C15U G35C C42G	0.7
G7A C8U U9G	0.53
G5U C8A A12C G21U C23G G27C G29C C46A	0.01
A11C G17U A26U	0.01
G21U C23A A24C	1.33
A24G G29C U38G G40U C42G	0.01
C3A A6C C23U G44C	0.75
C3U U20C G36C G40C	0.03
A16G A41G C45G	0.01

Variant	self-cleavage
C8A U34G G35U C46G	0.1
C8U C15G C18A G30U C31A	0.03
C3A A11G A12G G22C	0.02
G7C C10U G22C G33A	0.05
A14G G21U G22A	0.58
C3A C31U A41U G44A	0.03
G2C G19U G30U	0.16
C15G U32C G44U	0.01
G22A G36U C46A	0.04
U20C U32G G33U	0.01
C10U G27U U32C	0.06
C37U C45A C46G	0.02
U9G U20A G27U U32G	0.03
G7U C15G G27C C37G	0.01
G1U A16U G29A G30A	0.04
U9G C15U C18A G19A G21A	0.25
A4G G5U G19C A25U G40C	0.02
G2U G5U C15U C18A G27C	0.02
C8A C23G C37U C46A	0.24
A6G G7U C31G	0.08
C13G C23U G30A G35U	1.68
A4U G33A C37U	0.1
A12C U20G U34A G36U A41C	0.01
G35U C37G C42G U43C C46G	0.05

Variant	self-cleavage
G2U A4C C23U G40A	0.03
C3G U9C C18G U20A G44A	0.01
G7U A39C A41U	0.53
G5U C10G A26G C37A	0.01
C10A C37U C42G	0.02
C15A G21U C46A	0.06
U20A C23U G35C	0.16
G1A A11U C13U U34G	0
A6U A14U C18A U38A C46G	0.04
G1U C3U C18A U28C U32A	0.08
C8U A11U A24G G29A	0.03
G29U U38C C42U	0.83
G2A A6G U28C	0.1
C3G G21U C23A C31G	0.03
G1C G19U A26G C37U	0.04
A6C A14C C37G G44U	0.16
C10A G19C G40C	0.03
G1U C3G G19C A26C	0.08
G1A C18A G19U A25G	0.01
G1C G40U G44A	0.03
G5U A26G A39U A41U	0.09
C10U A25C U32G	0.18
G1C G2U A11C C13A A26G G27U	0.01
